The values that follow come from PMC4336329 (PLoS ONE, 2015).

Each structure is given as a SMILES string. The whole screen tested about 310,000 compounds, of which about 14,000 (4.5%) showed an effect of 50% or more. The effect is printed as a negative number. The list shows a part of the results.
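Note: peak tail current of the secondary pulse compared with the same well before compound.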

Sequence of human ether-à-go-go-related gene (hERG) potassium channel (Q12809 whole entry, looked up): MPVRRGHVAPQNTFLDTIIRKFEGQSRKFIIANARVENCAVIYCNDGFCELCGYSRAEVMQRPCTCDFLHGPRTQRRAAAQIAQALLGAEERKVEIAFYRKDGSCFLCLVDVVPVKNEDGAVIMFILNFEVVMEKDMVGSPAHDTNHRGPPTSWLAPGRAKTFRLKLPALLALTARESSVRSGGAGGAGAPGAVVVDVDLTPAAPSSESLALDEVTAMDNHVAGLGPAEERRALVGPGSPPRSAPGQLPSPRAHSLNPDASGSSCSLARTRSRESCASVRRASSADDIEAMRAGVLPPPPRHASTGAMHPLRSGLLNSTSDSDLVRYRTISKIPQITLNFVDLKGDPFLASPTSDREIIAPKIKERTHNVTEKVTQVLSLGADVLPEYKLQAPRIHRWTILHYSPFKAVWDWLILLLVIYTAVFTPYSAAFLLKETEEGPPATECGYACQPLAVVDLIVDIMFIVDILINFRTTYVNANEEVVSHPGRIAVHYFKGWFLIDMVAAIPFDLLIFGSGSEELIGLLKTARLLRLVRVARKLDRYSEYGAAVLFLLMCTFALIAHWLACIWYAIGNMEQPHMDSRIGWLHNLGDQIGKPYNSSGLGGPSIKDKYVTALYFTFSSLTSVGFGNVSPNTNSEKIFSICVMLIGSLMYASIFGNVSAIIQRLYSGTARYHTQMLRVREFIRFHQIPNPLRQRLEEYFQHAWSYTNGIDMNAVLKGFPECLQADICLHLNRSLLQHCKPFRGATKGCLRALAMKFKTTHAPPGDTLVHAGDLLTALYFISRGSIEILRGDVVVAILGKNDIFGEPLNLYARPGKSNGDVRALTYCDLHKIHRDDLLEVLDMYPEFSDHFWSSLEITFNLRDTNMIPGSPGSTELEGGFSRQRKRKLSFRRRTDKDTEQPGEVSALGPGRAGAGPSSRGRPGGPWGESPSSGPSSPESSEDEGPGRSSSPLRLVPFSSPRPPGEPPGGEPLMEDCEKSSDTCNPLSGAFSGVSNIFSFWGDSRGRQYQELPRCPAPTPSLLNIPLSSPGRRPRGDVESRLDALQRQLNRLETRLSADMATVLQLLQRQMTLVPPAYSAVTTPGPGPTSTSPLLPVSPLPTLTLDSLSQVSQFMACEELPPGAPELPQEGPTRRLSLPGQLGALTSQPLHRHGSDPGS

The assay has as its target human ether-à-go-go-related gene (hERG) potassium channel (human, UniProt Q12809). The assay is described as follows: primary screen, population patch clamp on CHO cells stably expressing hERG.
In the case of `Cc1cc(N2CCN(c3ccc(F)cc3)CC2)nc2cc(O)ccc12`, the “hERG current change (%, negative = inhibition) at 10uM” value was -75.9%.

As to `N#Cc1ccc2ccn(CC(=O)NCc3ccco3)c2c1`, the “hERG current change (%, negative = inhibition) at 10uM” value is -6.81%.

Regarding `Cc1cccc(C(=O)Nc2cc(C)ccc2NC(=O)COc2ccccc2)c1`, the “hERG current change (%, negative = inhibition) at 10uM” value is reported as 10.8%.

Turning to `CC(C)c1ccc(OCC(=O)NC(C)c2ccccc2)cc1` (centres unmarked), the “hERG current change (%, negative = inhibition) at 10uM” value is listed as 1%.

For `O=C(NCCN1C(=O)S/C(=C\c2cccs2)C1=O)[C@H](Cc1ccccc1)N1C(=O)c2ccccc2C1=O`, the “hERG current change (%, negative = inhibition) at 10uM” value is -2.44%.

Take `CCNC(=S)Nc1ccc(Cl)cc1`: the “hERG current change (%, negative = inhibition) at 10uM” value stood at 8.45%.

For the compound `Cc1sc2ccc3sccc3c2[n+]1C.[I-]`, the “hERG current change (%, negative = inhibition) at 10uM” value is on record as 10.6%.

Consider `S=C(NCC1CCCO1)NC1CCCCC1` (centres unmarked), for which the “hERG current change (%, negative = inhibition) at 10uM” value is on record as 20.3%.

Consider `Cn1cc(S(=O)(=O)N2CCOCC2)cc1C(=O)NCCc1ccccc1`, for which the “hERG current change (%, negative = inhibition) at 10uM” value is -13.4%.

For the compound `O=C(Oc1ccc2ccc(=O)oc2c1)c1ccco1`, the “hERG current change (%, negative = inhibition) at 10uM” value was -73.1%.

For `NNC(=O)c1ccc2nc(-c3ccc(Br)cc3)cn2c1`, the “hERG current change (%, negative = inhibition) at 10uM” value is given as -33.6%.

With `O=C(O)CNS(=O)(=O)c1ccc2c(c1)Cc1cc(S(=O)(=O)NCC(=O)O)ccc1-2`, the “hERG current change (%, negative = inhibition) at 10uM” value is on record as 2.59%.

Turning to `Cc1ccc(C(=O)Nc2ccccc2C(=O)N2CCCCC2C)cc1` (centres unmarked), the “hERG current change (%, negative = inhibition) at 10uM” value was -6.37%.

For the compound `CC(C)(/C=N/O)/[N+]([O-])=C/c1ccco1`, the “hERG current change (%, negative = inhibition) at 10uM” value is reported as 2.94%.

In the case of `CSc1ccccc1NC(=O)CN1c2ccccc2CC1C` (centres unmarked), the “hERG current change (%, negative = inhibition) at 10uM” value is given as 1.77%.

On to `CCn1c(SCC(=O)NC2CCCC2)nnc1-c1c[nH]c2ccccc12`, for which the “hERG current change (%, negative = inhibition) at 10uM” value was 1.48%.

On to `Nc1cc(Cl)cc(Cl)c1`, for which the “hERG current change (%, negative = inhibition) at 10uM” value turned out to be 10.2%.

Consider `O=C1CC(C(=O)Nc2cccc(Cl)c2)n2ncnc2N1` (centres unmarked), for which the “hERG current change (%, negative = inhibition) at 10uM” value amounted to 27.7%.

As to `O=C(Nc1nc2ccccc2s1)C1CC(=O)N(c2ccccc2)C1` (centres unmarked), the “hERG current change (%, negative = inhibition) at 10uM” value is reported as -11.2%.

With `CC1(C)C(=O)NCCN1C(=O)c1ccc2nc(Cc3ccccc3F)oc2c1`, the “hERG current change (%, negative = inhibition) at 10uM” value was 9.49%.

For `O=C(O)CCCN=CC1=C(O)CNC1=O`, the “hERG current change (%, negative = inhibition) at 10uM” value came out at 21%.

For the compound `O=C(NC1CCCC1)C(c1cccnc1)N(C(=O)c1ccco1)c1ccc(F)cc1` (centres unmarked), the “hERG current change (%, negative = inhibition) at 10uM” value is 13.8%.

For `COc1ccc(/C=N\Nc2ncc(F)c(N3CCOCC3)n2)cc1OC`, the “hERG current change (%, negative = inhibition) at 10uM” value is given as -31.1%.

On to `COc1cccc(-n2cnnc2SCC(=O)NC2CC2)c1`, for which the “hERG current change (%, negative = inhibition) at 10uM” value came to 17.5%.

For `O=C(NNC(=O)c1ccc2c(=O)n3c(nc2c1)CCC3)c1cccc(Cl)c1`, the “hERG current change (%, negative = inhibition) at 10uM” value was -8.21%.

As to `NC(=S)Nc1ccc(S(=O)(=O)c2ccc(NC(N)=S)cc2)cc1`, the “hERG current change (%, negative = inhibition) at 10uM” value amounted to 28.1%.
